The whole screen tested about 350,000 compounds, of which about 260 (0.074%) were called active. The inconclusive results got no clear call from the source; some entries with a clear call stand among them for comparison. The call rests on the fitted dose curve; in most records, active means well fitted inhibition curve with a large enough effect; inconclusive means small, poorly fitted or top-dose-only effect; inactive means no such curve, though single readings can be large or run the other way. A potency beside an inconclusive call is a rough fit, not a confirmed value.
These compounds were tested against Ferritin light chain (Equus caballus) (UniProt P02791) (assay: qHTS Assay for Identification of Novel General Anesthetics). Conditions: apoferritin/1-aminoanthracene competitive binding, fluorescence; activity change, negative = displacement: at 77.5 µM (top of the series).
Summary of the method: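 Steps: apoferritin (10 uM) was premixed with half-saturated 1-AMA in PBS, compounds were pin-transferred, plates stood 10 min at room temperature, fluorescence was read at 380/535 nm, and curves were fitted with a Hill equation.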
Further: nearly all actives have a fitted effect of over 20% in size.
On the % scale 0 is the no-effect control and ±100 the full control effect; potency means the concentration at half of the fitted maximal effect; tags describe the fitted curve by direction and shape.

Chain of UniProt P02791 (P02791 whole entry, looked up): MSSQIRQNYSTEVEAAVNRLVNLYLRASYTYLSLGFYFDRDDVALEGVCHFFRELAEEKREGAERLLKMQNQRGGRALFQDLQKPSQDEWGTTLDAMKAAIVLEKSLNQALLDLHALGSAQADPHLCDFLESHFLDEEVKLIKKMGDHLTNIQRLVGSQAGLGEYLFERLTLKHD

Potency, inconclusive:
Cc1cccc(S(=O)(=O)c2cn(Cc3ccc(F)cc3)c3cc(N4CCCCC4)c(F)cc3c2=O)c1 3.16 µM [inhibitor, full curve, poor fit], Cc1nn(C(=O)c2nn(C)cc2[N+](=O)[O-])c(C)c1Cl 31.6 µM [inhibitor, partial curve], Cc1coc(C)c1C(=O)Nc1ccc2ccccc2c1 28.2 µM [inhibitor, partial curve], O=C(CSc1nc2ccccc2c(=O)n1NC(=O)c1ccccc1)c1ccccc1 8.91 µM [inhibitor, partial curve], COc1ccc(-c2ccc(C(C)=O)cc2)cc1C1C2C=CCC(C)C2C(=O)N1Cc1ccccc1 (configuration not stated) 7.08 µM [inhibitor, partial curve], COc1ccc2c(C)cc(SCC(=O)c3ccc4c(c3)OCO4)nc2c1 11.2 µM [inhibitor, partial curve], CCOc1cc(CNCCSc2nnnn2C)ccc1OCc1ccc(Cl)cc1Cl 31.6 µM [inhibitor, partial curve], CC(C)CC(=O)Nc1ccc(Nc2ccccc2)cc1 56.2 µM [inhibitor, single point], CN(C)/[N+]([O-])=N/Oc1cc(ON=[N+]([O-])N2CCN(c3ncccn3)CC2)c([N+](=O)[O-])cc1[N+](=O)[O-] 28.2 µM [inhibitor, partial curve], Cc1cc(C)cc(Nc2ncc3c(n2)CCCC3=O)c1 25.1 µM [inhibitor, partial curve], COc1ccc(CC(=O)NC2CCCCCC2)c(OC)c1 22.4 µM [inhibitor, partial curve], Cc1nonc1NC(=O)CSc1nc(C2CCCCC2)nc2ccccc12 39.8 µM [inhibitor, partial curve], Cc1nc(N)sc1N=Nc1ccccc1C(F)(F)F 31.6 µM [inhibitor, single point], COc1ccc(N2CC(C(=O)OCC(=O)c3cccc(OC)c3)CC2=O)cc1 (configuration not stated) 20 µM [inhibitor, partial curve], O=S(=O)(NC1CCCCCC1)c1cccc2cccnc12 28.2 µM [inhibitor, partial curve], O=C(Nc1cccc(C(F)(F)F)c1)c1cc2c(=O)c3ccccc3oc2nc1C(F)(F)F 8.91 µM [inhibitor, partial curve], CCCc1cc(=O)[nH]c(SCC(=O)Nc2sc3c(c2C#N)CCC(C)C3)n1 (configuration not stated) 35.5 µM [inhibitor, single point], Cc1ccc(C(=O)COC(=O)CCc2nc3ccccc3[nH]c2=O)cc1C 5.62 µM [inhibitor, full curve, poor fit], CC(=O)Nc1ccc(S(=O)(=O)N2CCC(N3CCN(Cc4ccc(C)cc4)C(=O)C3=O)CC2)cc1 35.5 µM [inhibitor, single point], O=C(CNC(=O)c1cccc(Br)c1)N/N=C/c1ccc[nH]1 7.94 µM [inhibitor, partial curve], CC(=O)C1=C(C)NC(SCC(=O)Nc2nc3ccccc3s2)=C(C#N)C1c1ccc(Cl)cc1 (configuration not stated) 17.8 µM [inhibitor, partial curve], COc1ccc(CSc2nc(C)cc(=O)[nH]2)cc1 39.8 µM [inhibitor, single point], CC(=O)c1cccc(-n2nnnc2SCC(=O)Nc2ccccc2N2CCCCC2)c1 15.8 µM [inhibitor, partial curve], CCc1ccc(/C=N/NC(=O)c2ccc(OC3CCCC3)cc2)s1 35.5 µM [inhibitor, partial curve], CCOC(=O)C1CCN(C2CCN(C(=O)c3oc4c(C)c(C)ccc4c3C)CC2)CC1 39.8 µM [inhibitor, partial curve], COc1ccccc1C(=O)NC1CCSc2ccccc21 (configuration not stated) 28.2 µM [inhibitor, partial curve], CCc1ccc(NC(=O)CSc2nnc(Cc3cccn3C)n2-c2ccc(F)cc2)cc1 31.6 µM [inhibitor, single point], O=C(c1c(Cl)cccc1Cl)N1CCCCCC1 39.8 µM [inhibitor, partial curve], O=C(COc1ccc(Cl)cc1)NCCc1csc(-c2ccc(C(F)(F)F)cc2)n1 22.4 µM [inhibitor, partial curve], Cc1ccc(CN2CCC(CNC(=O)Nc3ccccc3F)CC2)cc1 1.41 µM [inhibitor, full curve, poor fit], COC(=O)c1ccccc1NC(=S)NC(NC(=O)c1ccco1)C(Cl)(Cl)Cl (configuration not stated) 22.4 µM [inhibitor, partial curve], CCC(NC(=O)c1cc(COc2ccc(F)c(F)c2)on1)c1ccncc1 (configuration not stated) 31.6 µM [inhibitor, partial curve], CCN(C(=O)COC(=O)/C=C/c1ccc(S(=O)(=O)N2CCc3ccccc32)cc1)C1CCS(=O)(=O)C1 (configuration not stated) 35.5 µM [inhibitor, partial curve], O=C(CN1C(=O)NC2(CCOc3ccccc32)C1=O)Nc1ccc2c(c1)OCCO2 (configuration not stated) 22.4 µM [inhibitor, partial curve], COc1ccc(C(=O)Nn2c(SCC(=O)NCc3ccco3)nc3ccccc3c2=O)cc1 20 µM [inhibitor, partial curve], C/C(=N/NC(=O)c1cc2ccccc2cc1O)C1C(=O)c2ccccc2C1=O 25.1 µM [inhibitor, partial curve], CC(C)(C)c1csc(N/N=C/c2cccnc2)n1 35.5 µM [inhibitor, partial curve], Cc1ccc(NC(=O)c2cc(S(=O)(=O)N3CCCCC3)cs2)cc1 25.1 µM [inhibitor, partial curve], CCn1cc(C(=O)OCC(=O)c2cc(C)n(-c3ccccc3F)c2C)c(=O)c2ccc(C)nc21 39.8 µM [inhibitor, single point], CCOC(=O)/C(C#N)=N\Nc1ccc(S(=O)(=O)Nc2nc(C)cc(C)n2)cc1 44.7 µM [inhibitor, partial curve], CC1CCCN(C(=O)Nc2ccc(Br)cc2Cl)C1 (configuration not stated) 15.8 µM [inhibitor, partial curve], CCOC(=O)c1sc(NC(=O)CSc2nnc(Cc3ccccc3)o2)c(C(=O)OCC)c1C 17.8 µM [inhibitor, partial curve], O=C(CC1(O)C(=O)N(CCc2ccccc2)c2ccccc21)c1ccco1 (configuration not stated) 31.6 µM [inhibitor, single point], O=C(COC(=O)CNC(=O)C12CC3CC(CC(C3)C1)C2)Nc1ccccc1 10 µM [inhibitor, partial curve], CCN1C(=O)NC2=C(C(=O)c3ccccc32)C1c1ccccc1F (configuration not stated) 28.2 µM [inhibitor, partial curve, poor fit], Nc1ccccc1C(=O)NCc1ccc(Cl)cc1 50.1 µM [inhibitor, single point], O=C1CCCCCN1Sc1ccccc1 44.7 µM [inhibitor, partial curve], Cc1nnc(SCc2c(Cl)cccc2[N+](=O)[O-])s1 31.6 µM [inhibitor, partial curve]

Activity change, negative = displacement, inactive:
CCc1ccc(N(C(=O)Cc2cccs2)C(C(=O)NC2CCCCC2)c2cn(C)nc2C)cc1 (configuration not stated) -6.74%, O=S(=O)(N/N=C\c1ccc(-c2ccccc2Cl)o1)c1ccccc1 -4.87%, CC1(C)C(=O)NC2=C1C(=O)C(=O)c1ccccc12 -2.28%, C[N+](C)(C)CCCCCCC(=O)/C=N/O -8.5%, O=C(NC1CCN(S(=O)(=O)c2ccc(F)cc2)CC1)c1cccnc1 -4.48%, O=C(Cc1ccccc1)NNC(=O)C1CCCC1 0.481%, COc1ccc(Nc2ncnc3scc(-c4ccc(F)cc4)c23)cc1 46.5%, COc1cccc(N=Nc2c(N)[nH]n3c(=O)cc(-c4ccccc4)nc23)c1 -14.2%, COc1ccc(C)cc1Nc1nc2c(S(=O)(=O)c3cc(C)ccc3C)nnn2c2ccsc12 0.44%, CCn1c(CNc2ccc(Cl)cc2)nnc1SCCN1CCCCC1 -0.433%, Cc1c(CCC(=O)N[C@@H](C)C(=O)O)c(=O)oc2cc3oc4c(c3cc12)CCCC4 5.19%, CCOc1ccc(NC(=O)NC(C)c2c(-n3cccc3)sc3c2CCN(CC)C3)cc1 (configuration not stated) 1.17%, CC(C)(C)OC(=O)N[C@@H](Cc1ccccc1)c1nnc(SCC(=O)O)o1 -19.1%, CCOC(=O)NC1(NCc2ccccc2)Oc2ccccc2O1 -11%, CCOc1ccc(-c2cn(-c3ccc(OC)cc3)c(SC)n2)cc1 26.9%, COc1ccc(CCNC(=O)C(=O)NCC(c2ccco2)S(=O)(=O)c2cccs2)cc1 (configuration not stated) -3.75%, Cc1ccc(-c2cc(C(=O)NCCCN3CCOCC3)no2)cc1 -9.57%, CCN(CC)S(=O)(=O)c1ccc(S(=O)(=O)N2CCCC(C(=O)NC3CC3)C2)cc1 (configuration not stated) 2.25%, Cc1cc(C)c(NC(=O)Cn2c(=O)n(CCc3ccccc3)c(=O)c3ccccc32)c(C)c1 1.26%
